Reference: PubChem BioAssay AID686978 (National Center for Advancing Translational Sciences (NCATS), 2013)
The campaign covered roughly 420,000 compounds. About 64,000 (15%) were called active. Inconclusive results, whose numbers are uncertain, are shown with a selection of clear calls. Calls come from the whole dose curve; as a rule, active = well fitted inhibition curve with a large enough effect; inconclusive = small, poorly fitted or top-dose-only effect; inactive = flat fitted curve, though single readings scatter. No potency is given beside an inconclusive call; the fits are too rough.

assay: qHTS for Inhibitors of human tyrosyl-DNA phosphodiesterase 1 (TDP1): qHTS in cells in absence of CPT; details: DT40 Tdp1-/- hTDP1 cells, no CPT, ATP luminescence, 48 h; activity change, negative = growth inhibition: at 46.2 µM (top of the series) unless noted; note: nearly all actives have a fitted effect of over 55% in size
In short: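 Cells were dispensed at 400 per well, compounds added by pin tool, plates incubated ≥48 hr at 37 °C, then CellTiter-Glo added for 30 min at room temperature before luminescence reading. Line: DT40 Tdp1-/- complemented with hTDP1; camptothecin omitted.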
% is set by controls: 0 for no effect and ±100 for the full control effect; potency is the fitted concentration of half-maximal effect; tags give direction and shape of the fitted curve.

| Structure (SMILES) | Potency | activity change, negative = growth inhibition |
| --- | --- | --- |
| CCNc1nc(NCC)nc(NS(=O)(=O)c2ccc(N)cc2)n1 | inactive | – |
| Cc1ccccc1/C=N/Nc1nc2ccccc2[nH]1 | inconclusive [inhibitor, single point] | – |
| CCn1ncc(Br)c1C(=O)Nc1cc(C)ccc1F | inconclusive [inhibitor, partial curve] | – |
| Cc1oc(-c2ccc(Cl)cc2)nc1CN1CCCN(C(=O)c2ccco2)CC1 | inconclusive [inhibitor, single point] | – |
| CCC1(CC)Cc2ccccc2-c2nc(CN3CCOCC3)[nH]c(=O)c21 | inconclusive [inhibitor, single point] | – |
| CCc1ccccc1NC(=O)Cn1c(=O)n(Cc2ccc(OC)cc2)c(=O)c2oc3ccccc3c21 | inconclusive [inhibitor, partial curve] | – |
| COc1ccccc1N1CCN(C(=O)c2ccc3[nH]c4c(c3c2)CC(C)CC4)CC1 (centres undefined) | inconclusive [inhibitor, single point] | – |
| Cn1c(N)c(C(=O)CSc2nnc(NC3CCCCC3)s2)c(=O)n(C)c1=O | inconclusive [inhibitor, partial curve, poor fit] | – |
| COc1ccc(F)cc1-c1cc(C(=O)N2CCc3ccccc3C2)[nH]n1 | inconclusive [inhibitor, partial curve, poor fit] | – |
| O=C(C1CCCC1)N1CCC(CC2CC(c3cccc(Br)c3)=NO2)(C(=O)NCC2CCCCC2)CC1 (centres undefined) | inconclusive [inhibitor, single point] | – |
| COc1ccc(CCNc2c3ccccc3nc3ccccc23)cc1OC | active: 20.6 µM | – |
| O=C(Nc1ccc(-c2noc(CCc3ccccc3)n2)cc1)c1ccco1 | inconclusive [inhibitor, partial curve] | – |
| CC(=O)Nc1ccc(S(=O)(=O)N(C)CC(=O)Nc2ccc(Br)cc2F)cc1 | inconclusive [inhibitor, single point] | – |
| CN(Cc1ccccc1)S(=O)(=O)c1ccc(C(=O)Nc2nnc(C3CC3)o2)cc1 | active: 20.6 µM | – |
| Cn1c(=O)n(C)c2cc(NS(=O)(=O)c3ccc(Cl)s3)ccc21 | inconclusive [inhibitor, partial curve, poor fit] | – |
| C=CCN(c1ccccc1OC)S(=O)(=O)c1cccc(C(=O)OCC(=O)c2c[nH]c3ccccc23)c1 | active: 23.1 µM | – |
| CCN(C(=O)C1CCCN(c2nc(-c3ccc(OC)cc3)no2)C1)c1ccccc1F (centres undefined) | inconclusive [inhibitor, single point] | – |
| COc1ccccc1N1CCN(S(=O)(=O)CCNC(=O)COc2ccccc2)CC1 | inconclusive [inhibitor, single point] | – |
| COc1ccccc1/C=C(/NC(=O)c1ccccc1)C(=O)NCCCn1ccnc1 | inactive | – |
| Cc1cccc(CCN=c2c([N+](=O)[O-])nn(-c3ccccc3)n2O)c1 | inconclusive [inhibitor, partial curve] | – |
| COCCOC(=O)c1c(-c2ccccc2)c(-c2ccccc2)nn(C)c1=O | active: 20.6 µM | – |
| O=C(CSc1nc(-c2ccc(F)cc2)[nH]c1-c1ccc(F)cc1)Nc1ccc2c(c1)OCCO2 | active: 10.3 µM | – |

| Structure (SMILES) | Potency | activity change, negative = growth inhibition |
| --- | --- | --- |
| Cc1ccc[n+](-c2nc([O-])sc2/C=N/Nc2ccc([N+](=O)[O-])cc2)c1 | inactive | – |
| CCOc1ccc(S(=O)(=O)c2cn(C)c3cc(OC)c(OC)cc3c2=O)cc1 | inactive | – |
| CCN(C(=O)CCS(=O)(=O)c1cccc2nonc12)c1ccc(C)c(C)c1 | inconclusive [inhibitor, single point] | – |
| Cc1ccc(C(=O)OCC(=O)c2c[nH]c3ccccc23)cc1S(=O)(=O)N1CCCCC1 | active: 18.4 µM | – |
| COc1ccc(NC(=O)CSc2nnc(-c3cccs3)n2Cc2ccco2)cc1OC | inconclusive [inhibitor, partial curve] | – |
| CCOC(=O)c1cc2c(C)nn(-c3ccccc3)c2s1 | – | inconclusive: -32% [inhibitor] |
| COc1ccc(Cc2nc3ccc(C(=O)NCc4ccccc4Cl)cc3o2)cc1 | active: 16.4 µM | – |
| CCC(C)(C)n1nnnc1CN(Cc1cc2cc(OC)c(OC)cc2[nH]c1=O)C1CCCC1 | inconclusive [inhibitor, partial curve] | – |
| COCCN(C(=O)c1ccccc1F)c1nnc(-c2ccc(OC)cc2)s1 | inconclusive [inhibitor, single point] | – |
| COC(=O)c1ccc(CNC(=O)COC(=O)/C=C/c2cc(OC)c(OC)c(OC)c2)cc1 | inactive | – |
| Cc1snc(S(=O)(=O)/C(C#N)=N/Nc2cccc(C(F)(F)F)c2)c1C#N | inconclusive [inhibitor, single point] | – |
| Cc1ccc(C(=O)O/N=C(\N)c2ccccc2)c(Cl)c1 | inconclusive [inhibitor, single point] | – |
| O=C1OC(C(=O)Nc2cc(C(F)(F)F)ccc2Cl)Cc2ccccc21 (centres undefined) | inactive | – |
| O=C(NNC(=S)Nc1ccc(Cl)cc1)c1ccccc1OC(F)F | active: 23.1 µM | – |
| Cc1oc2c(C)c3oc(=O)c(CCC(=O)NCCCn4ccnc4)c(C)c3cc2c1C | inconclusive [inhibitor, single point] | – |
| Cc1ccc(C)c(N2CCN(C(=O)c3cnn(-c4ccccc4Cl)c3C3CCN(C(=O)OC(C)(C)C)CC3)CC2)c1 | active: 13 µM | – |
| CCOc1nc2cnccc2n(CC(=O)Nc2cccc(C)c2)c1=O | inactive | – |
| CCN(CC(=O)NCc1ccc(Cl)cc1)C(=O)COc1cccc(C(F)(F)F)c1 | inconclusive [inhibitor, partial curve, poor fit] | – |
| O=C(CCN1CCN(CCO)CC1)Nc1ccccc1 | inactive | – |
| Cc1ccccc1/C=N/NC(=O)c1cccnc1 | inactive | – |
| CCN(CC)c1nc(N)c2c(N)nc3c(c2c1C#N)CC(c1ccccc1)O3 (centres undefined) | inconclusive [inhibitor, single point] | – |
| O=C(CCc1nc2ccccc2c(=O)[nH]1)N1CCN(S(=O)(=O)c2ccccc2Br)CC1 | inconclusive [inhibitor, single point] | – |
